Here are results for 32 variants from the GPR68 mutational scans of Howard et al. (2025).

To fix the notation:
B1: GPR68, Q15743 (parent)
chain: MGNITADNSSMSCTIDHTIHQTLAPVVYVTVLVVGFPANCLSLYFGYLQIKARNELGVYLCNLTVADLFYICSLPFWLQYVLQHDNWSHGDLSCQVCGILLYENIYISVGFLCCISVDRYLAVAHPFRFHQFRTLKAAVGVSVVIWAKELLTSIYFLMHEEVIEDENQHRVCFEHYPIQAWQRAINYYRFLVGFLFPICLLLASYQGILRAVRRSHGTQKSRKDQIQRLVLSTVVIFLACFLPYHVLLLVRSVWEASCDFAKGVFNAYHFSLLLTSFNCVADPVLYCFVSETTHRDLARLRGACLAFLTCSRTGRAREAYPLGAPEASGKSGAQGEEPELLTKLHPAFQTPNSPGSGGFPTGRLA

Scores with a large standard error are left out. The source holds two more conditions with little spread; they are left out. Names with del lack the residues named; names with ins carry added residues between the positions named. For some assays here: How much ogerin was present is not stated here.

The variants in series [1] derive from B1. The series is described as follows: cAMP reporter score (Enrich2 score, wild type = 0); higher = more signal; HEK293T, FACS bins.
Variants of B1 are the subject of series [2]. The experiment in a line: surface expression score (Enrich2 score, wild type = 0); higher = more signal; HEK293T, FACS bins.

For T22F, the cAMP reporter score came to 1.02 in series [1] (pH 5.5); 0.103 in series [1] (pH 6); 0.904 in series [1] (pH 6, modulator: ogerin); 0.697 in series [1] (pH 6.5, modulator: ogerin). The surface expression score in series [2] was determined as 2.37.
The like results for T22P were, in that order, -1.51, -0.711, -1.2, -0.821 and -3.18.
In the same order, the values of T22I are 0.369, -0.508, 0.381, -0.07 and 1.49.
For T22G, the cAMP reporter score in series [1] (pH 5.5) was -0.482; in series [1] (pH 6), -0.334; in series [1] (pH 6, modulator: ogerin), -0.672; in series [1] (pH 6.5, modulator: ogerin), -0.436. In addition, the surface expression score in series [2] was -0.422.
As to T22A, the cAMP reporter score was 0.078 in series [1] (pH 5.5); -0.665 in series [1] (pH 6); -0.534 in series [1] (pH 6, modulator: ogerin); -1.04 in series [1] (pH 6.5, modulator: ogerin). For the same variant, the surface expression score in series [2] was -0.679.
As for T22L, the cAMP reporter score in series [1] (pH 5.5) is 0.994; in series [1] (pH 6), -0.336; in series [1] (pH 6, modulator: ogerin) it was 0.651; in series [1] (pH 6.5, modulator: ogerin), -0.16. For the same variant, in series [2], the surface expression score was determined as 1.72.
As to T22K, the cAMP reporter score in series [1] (pH 5.5) is 0.183; in series [1] (pH 6) it was -0.668; in series [1] (pH 6, modulator: ogerin), -0.389; in series [1] (pH 6.5, modulator: ogerin), -1.25. The surface expression score in series [2] was 0.531.
For the variant T22H, the cAMP reporter score in series [1] (pH 5.5) is -0.215; in series [1] (pH 6), -0.992; in series [1] (pH 6, modulator: ogerin) it was -0.228; in series [1] (pH 6.5, modulator: ogerin), -0.35. Further, the surface expression score in series [2] is -0.601.
For the variant T22S, the cAMP reporter score in series [1] (pH 5.5) is -0.126; in series [1] (pH 6) it was -0.3; in series [1] (pH 6, modulator: ogerin) it was -0.256; in series [1] (pH 6.5, modulator: ogerin), -0.489. For the same variant, in series [2], the surface expression score is -0.669.
As for T22E, the cAMP reporter score is -0.399 in series [1] (pH 5.5); -1.64 in series [1] (pH 6); -0.122 in series [1] (pH 6, modulator: ogerin). Moreover, the surface expression score in series [2] is -0.42.
As to T22V, the cAMP reporter score was 0.074 in series [1] (pH 5.5); -0.646 in series [1] (pH 6); 0.206 in series [1] (pH 6, modulator: ogerin); -0.107 in series [1] (pH 6.5, modulator: ogerin). Besides, the surface expression score in series [2] came out at 1.17.
As for T22W, the cAMP reporter score was 1.16 in series [1] (pH 5.5); 1.31 in series [1] (pH 6); 1.13 in series [1] (pH 6, modulator: ogerin); 1.53 in series [1] (pH 6.5, modulator: ogerin). In series [2], the surface expression score came to 1.7.
On to T22Y, for which the cAMP reporter score stood at 0.552 in series [1] (pH 5.5); 0.983 in series [1] (pH 6); 0.887 in series [1] (pH 6, modulator: ogerin); 1.13 in series [1] (pH 6.5, modulator: ogerin). Also, the surface expression score in series [2] came to 1.28.
Regarding T22M, the cAMP reporter score in series [1] (pH 5.5) is 0.32; in series [1] (pH 6), -0.551; in series [1] (pH 6, modulator: ogerin) it was 0.354; in series [1] (pH 6.5, modulator: ogerin), -0.222. Also, the surface expression score in series [2] amounted to 1.85.
On to T22N, for which the cAMP reporter score is -0.309 in series [1] (pH 5.5); 0.183 in series [1] (pH 6); -0.766 in series [1] (pH 6, modulator: ogerin); -0.384 in series [1] (pH 6.5, modulator: ogerin). Further, the surface expression score in series [2] is -0.716.
Consider T22Q, for which the cAMP reporter score in series [1] (pH 5.5) is -1.62; in series [1] (pH 6), -1.12; in series [1] (pH 6, modulator: ogerin), -1.81; in series [1] (pH 6.5, modulator: ogerin), -1.33. Moreover, in series [2], the surface expression score was -1.78.
As to T22D, the cAMP reporter score in series [1] (pH 5.5) was -0.469; in series [1] (pH 6, modulator: ogerin) it was -0.138; in series [1] (pH 6.5, modulator: ogerin), -0.015. Further, the surface expression score in series [2] is -1.55.
As to T22C, the cAMP reporter score in series [1] (pH 5.5) was -0.599; in series [1] (pH 6), -0.931; in series [1] (pH 6, modulator: ogerin) it was -1.25; in series [1] (pH 6.5, modulator: ogerin), -0.434. Further, the surface expression score in series [2] is -0.064.
Regarding T22R, the cAMP reporter score in series [1] (pH 5.5) was 0.429; in series [1] (pH 6) it was -0.533; in series [1] (pH 6, modulator: ogerin) it was -0.667; in series [1] (pH 6.5, modulator: ogerin), -0.341. Also, the surface expression score in series [2] turned out to be 0.784.
In the same order, the values of L23E are -1.49, 0.209, -1.99, -1.06 and -3.48.
Turning to L23S, the cAMP reporter score was -1.61 in series [1] (pH 5.5); -1.31 in series [1] (pH 6); -1.15 in series [1] (pH 6, modulator: ogerin); -0.923 in series [1] (pH 6.5, modulator: ogerin). The surface expression score in series [2] was -2.5.
In the case of L23N, the cAMP reporter score in series [1] (pH 5.5) was -2.81; in series [1] (pH 6, modulator: ogerin), -0.661. The surface expression score in series [2] was -3.45.
Turning to L23K, the cAMP reporter score in series [1] (pH 5.5) is -1.77; in series [1] (pH 6), -1.61; in series [1] (pH 6, modulator: ogerin), -1.94; in series [1] (pH 6.5, modulator: ogerin), -1.49. For the same variant, the surface expression score in series [2] was -2.61.
For the variant L23R, the cAMP reporter score is -0.705 in series [1] (pH 5.5); -1.06 in series [1] (pH 6); -1.87 in series [1] (pH 6.5, modulator: ogerin). Moreover, in series [2], the surface expression score was -3.03.
Take L23A: the cAMP reporter score in series [1] (pH 5.5) was -0.776; in series [1] (pH 6), -0.684; in series [1] (pH 6, modulator: ogerin) it was -1.12; in series [1] (pH 6.5, modulator: ogerin), -1.02. In addition, the surface expression score in series [2] is -1.96.
For L23D, the cAMP reporter score in series [1] (pH 5.5) was -1.77. Moreover, in series [2], the surface expression score is -2.92.
L23G: the cAMP reporter score is -1.22 in series [1] (pH 5.5); -0.517 in series [1] (pH 6); -1.2 in series [1] (pH 6, modulator: ogerin); -0.964 in series [1] (pH 6.5, modulator: ogerin). For the same variant, the surface expression score in series [2] is -1.46.
As to L23I, the cAMP reporter score in series [1] (pH 5.5) was 0.165; in series [1] (pH 6) it was 0.193; in series [1] (pH 6, modulator: ogerin) it was -0.633; in series [1] (pH 6.5, modulator: ogerin), 0.184. For the same variant, the surface expression score in series [2] amounted to 0.384.
Consider L23M, for which the cAMP reporter score in series [1] (pH 5.5) was -1.1; in series [1] (pH 6), -0.507; in series [1] (pH 6, modulator: ogerin), -1.34; in series [1] (pH 6.5, modulator: ogerin), -0.385. The surface expression score in series [2] is -2.04.
Consider L23Q, for which the cAMP reporter score in series [1] (pH 5.5) is -1.47; in series [1] (pH 6), -1.73; in series [1] (pH 6, modulator: ogerin), -1.25; in series [1] (pH 6.5, modulator: ogerin), -1.18. Also, in series [2], the surface expression score is -2.4.
As to L23C, the cAMP reporter score in series [1] (pH 5.5) came out at 0.275. The surface expression score in series [2] was -3.2.
As for L23Y, the cAMP reporter score in series [1] (pH 5.5) was -0.624; in series [1] (pH 6), -0.771; in series [1] (pH 6, modulator: ogerin), -1.18; in series [1] (pH 6.5, modulator: ogerin) it was -1.09. Moreover, in series [2], the surface expression score was -1.15.
